Consider 45 sequences from the supplement of paper PMC11417369.

± gives the standard deviation of the averaged measurements. The list shows a part of the results.

This assay relates to PfAP2-LT AP2 domain (GST-tagged). As to the kind of experiment: gcPBM binding intensity (ln(normalized median fluorescence intensity)); higher = stronger DNA binding. The method in brief: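 In this array assay, P. falciparum DNA-binding domains with a GST tag, expressed in E. coli, were applied for 1 h to primer-extended double-stranded 36-bp intergenic genomic probes and negative controls on an Agilent 4 × 180k array. Bound protein was visualised with Alexa488 anti-GST antibody at 488 nm. Binding intensity is the highest Masliner-normalised natural-log median intensity across replicate spots of either probe orientation.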
With “TAAAAATATATGTATACACACATATATATATATATA [CACACA_site3951]”, the “gcPBM binding intensity (ln)” value was found to be 9.63 ± 0.26. To “AATGAAATAATACAATGTACGTTAAAAAAAAATAAA [XGTACX_site7928]” belongs 8.82 ± 0.53; to “TAATATCAAACCTATAGTACATAAGGTATAAAAAAG [XGTACX_site3533]”, 8.86 ± 0.44. To “GTATTATTTTATGATGCATGTGTATTTCATATATGC [TGCATGCA_site660]” belongs 9.01 ± 0.43; to “TAACAAAAAGCACTTAGTACATATATATATATATAT [XGTACX_site1099]”, 9.88 ± 0.44.

Take “AATATAACTTTTTGCACACTTAATTTTTTTTTTTAA [CACACA_site3365]”: the “gcPBM binding intensity (ln)” value was found to be 9.01 ± 0.47.

For “TTTCTTTTTAAATATATACACACCGGGTGTACATAT [CACACA_site3345]”, the “gcPBM binding intensity (ln)” value came to 9.09 ± 0.38. Regarding “TATATTTATTATAACACACACATATTTATATTATAG [CACACA_site6628]”, the “gcPBM binding intensity (ln)” value is 9.02 ± 0.33. To “AGGTAATATACTAAATGTACAGAAAAACGAATTTTT [XGTACX_site2977]” belongs 8.8 ± 0.5. The result for “ATATATCATGAACCTTGTACGTATATATATATATAT [XGTACX_site239]” reads 9.59 ± 0.028; that for “ACTTCCTATATTTATGCATGCATTTTATTAAAAAAT [TGCATGCA_site747]”, 9.03 ± 0.34. Consider “TATACAATATTTATAACACACATATTTATATAAACT [CACACA_site6932]”, for which the “gcPBM binding intensity (ln)” value is 8.79 ± 0.4. To “AGAACATTTTCTCAGTGTACTTATATATTTGACATA [XGTACX_site6541]” belongs 8.72 ± 0.41; to “ACTAAACAATATGTATGTACATATTTTACATATAAT [XGTACX_site3318]”, 8.88 ± 0.44; to “TACAGACAGAAACACACACACACGCATAAAAAAAAA [CACACA_site1514]”, 9.91 ± 0.38. To “GATGGAATCTAATTTACATGCAGTGATATAATAAAT [TGCATGCA_site1031]” belongs 8.73 ± 0.38; to “TAATAATAACCGTTATGTACACAATTTTGTGAACAT [XGTACX_site8053]”, 8.74 ± 0.38; to “ATTTATTTATTTATATGTACATATATATATATATAT [XGTACX_site339]”, 9.12 ± 0.12. Regarding “TCAAGAATTTTAAAGAGTACATAAAACAATAATATA [XGTACX_site3923]”, the “gcPBM binding intensity (ln)” value came out at 8.56 ± 0.4. “CAAAAATAACGAGTCAAACACACATATATATATATA [CACACA_site2038]”: the “gcPBM binding intensity (ln)” value was determined as 9.86 ± 0.3. For “AAAGGGATAACACCAAAAAAAATAAAAATAAAAATA [GTGCAC_negctrl_site680]”, the “gcPBM binding intensity (ln)” value stood at 8.63 ± 0.73. Take “CAACACTTTCAAAAATGTACGTACAAATGTATTTTA [XGTACX_site6713]”: the “gcPBM binding intensity (ln)” value was found to be 8.73 ± 0.47. The result for “ACAAAATAAAGACACACACACAAACACAAAAAAATA [CACACA_site7568]” reads 10.1 ± 0.38; that for “AGTTTCCATATGAGGTGTACATATATAATTTATTAT [XGTACX_site2369]”, 8.93 ± 0.36.

As for “ATGCGTATACTAAGAACACACAAGTTACTTGGTGTT [CACACA_site1625]”, the “gcPBM binding intensity (ln)” value amounted to 8.96 ± 0.35. The result for “ATTAATGATTTTTGTTGTACATTATTAATTTACATT [XGTACX_site544]” reads 8.88 ± 0.4. In the case of “CATACATACATACATACACACATACATATGTATTTA [CACACA_site5384]”, the “gcPBM binding intensity (ln)” value came to 9.31 ± 0.33. To “TATTTTATATTTCATTTGTTATTTTTCTTGGTTCTA [CACACA_negctrl_site33]” belongs 8.73 ± 0.59; to “TACCATTATTTTAAGTGTACATACTAATTTATATAT [XGTACX_site6548]”, 8.79 ± 0.43.

In the case of “AAAATATAATATATTGCACACAAAAAGTGAATTATT [CACACA_site8489]”, the “gcPBM binding intensity (ln)” value was 9.06 ± 0.35. The result for “TCTTTCTATTTATAATGTACTCAAAATTATTCTATA [XGTACX_site4867]” reads 8.51 ± 0.4; that for “AAATTGTGTGAAATATATTAATATTATTATTATTAT [TGCATGCA_negctrl_site189]”, 8.65 ± 0.52. To “CCTTGCATTTATTATACACACACAAAAAAATATATA [CACACA_site7964]” belongs 9.05 ± 0.4.

In the case of “TTTTACCACTAAAAATGTACAAAAAAAAAAAAAAAA [XGTACX_site4226]”, the “gcPBM binding intensity (ln)” value was 8.37 ± 0.4. Turning to “TTTGTAGATTTTGTAACACACACATATATATACATA [CACACA_site8757]”, the “gcPBM binding intensity (ln)” value amounted to 9.12 ± 0.35.

Turning to “TATGCACCCAGACACACACACACAACTAAAAAATAA [CACACA_site2567]”, the “gcPBM binding intensity (ln)” value was 9.8 ± 0.35. Turning to “TTGCAAATATATGGTTGTACTCAAAAAAAAAAAAAA [XGTACX_site6975]”, the “gcPBM binding intensity (ln)” value came to 8.48 ± 0.43.

For the sequence “CATGTCAAAATTATACGTACATATATAAGTTCCATT [XGTACX_site6331]”, the “gcPBM binding intensity (ln)” value is 8.86 ± 0.35. As to “AAAAAAAAATAAAAAAGTACATTCATTTTATAAGAT [XGTACX_site3507]”, the “gcPBM binding intensity (ln)” value stood at 8.61 ± 0.49. The result for “ATCCTCTTTTTAAGTTGTACAGGGTCGAAAAAAAAA [XGTACX_site6852]” reads 8.37 ± 0.4; that for “GATTATTATTATAAGGGTACAAATATTTAATAAAAA [XGTACX_site7144]”, 8.59 ± 0.54; that for “TTTTTTCAAATTATTCGATATGTAAAAAAATAAAAT [GTGCAC_negctrl_site241]”, 8.12 ± 0.42. To “AAATATTTGTGTGGTTGTACTATAATGATAAAAATA [XGTACX_site7703]” belongs 8.99 ± 0.47; to “TTTTTTTTTTTTGAGTGTACAAGATTGTTGTTCCAA [XGTACX_site6120]”, 8.51 ± 0.51; to “CATACATACAAACACACACACATATATATATATATA [CACACA_site43]”, 10.16 ± 0.042.
